Patent US5763404A, “Methods for using LHRH antagonists with low histamine release” (priority 1995, dated 1998)
Not every detail of the peptide structures is certain; ends, links or a residue may be inferred. Non-standard residues stand in square brackets, D forms with d. Residues, ends and D or L forms follow the SMILES beside them. *: point of attachment. dPhe(4-Cl) = N[C@H](Cc1ccc(Cl)cc1)C(=O)O; d2Nal = N[C@H](Cc1ccc2ccccc2c1)C(=O)O; Lys(iPr) = CC(C)NCCCC[C@H](N)C(=O)O; d3Pal = N[C@H](Cc1cccnc1)C(=O)O; Nicotinoyl = O=C(c1cccnc1)*

How the values were obtained:
[1] = tested on: 4-day cycling rats; experiment: antiovulatory activity (AOA) in rats, single sc injection; format: in vivo, rat; details: for AOA %/μg 1.0: 1.0 μg sc in corn oil
[2] = tested on: dispersed pituitary cell culture; experiment: dispersed pituitary cell culture assay; format: cell-based
[3] = tested on: 26 days old female rats; experiment: duration of action s.c.: serum LH and FSH after agonist [D-Qal^6]-LHRH; format: in vivo, rat; details: for FSH / LH: -44 hr, agonist 50 ng sc, +2 hrs
[4] = tested on: rats; experiment: oral activity in the antiovulatory assay; format: in vivo, rat
[5] = tested on: rat mast cells; experiment: in vitro histamine release test; format: cell-based; details: rat mast cells, ± SEM; listed as 24542
[6] = injected 30 ug 44 hours before 50 ng agonist

Compound: CC(=O)N[C@H](Cc1ccc2ccccc2c1)C(=O)N[C@H](Cc1ccc(Cl)cc1)C(=O)N[C@H](Cc1cccnc1)C(=O)N[C@@H](CO)C(=O)N[C@@H](CCCCNC(=O)c1cccnc1)C(=O)N[C@H](CCCCNC(=O)c1cccnc1)C(=O)N[C@@H](CC(C)C)C(=O)N[C@@H](CCCCNC(C)C)C(=O)N1CCC[C@H]1C(=O)N[C@H](C)C(N)=O [Antide, [N-Ac-D-2-Nal^1, D-pClPhe^2, D-3-Pal^3, NicLys^5, D-NicLys^6, ILys^8, D-Ala^10]-LHRH] (Ac-[d2Nal][dPhe(4-Cl)][d3Pal]SK(Nicotinoyl)[dK](Nicotinoyl)L[Lys(iPr)]P[dA]-NH2)
- AOA %/μg 0.5 ([1]; 0.5 μg sc in corn oil): 36%
- AOA %/μg 1.0 [1]: 100%
- AOA %/μg 1.0 ([1]; listed as 24542): 100%
- AOA %/μg 1.0 ([1]; listed as No. 43): ≥ 90%
- AOA %/μg 2.0 ([1]; 2.0 μg sc in corn oil): 100%
- prevention of ovulation (in words) ([1]; rat, in vivo): effective to prevent ovulation
- FSH ([2]; peptide 0.01 nM + LHRH 3.0 nM): 546 ± 93 ng/mL
- RLH ([2]; peptide 0.01 nM + LHRH 3.0 nM): 118 ± 11 ng/mL
- FSH ([2]; peptide 0.03 nM + LHRH 3.0 nM): 499 ± 26 ng/mL
- RLH ([2]; peptide 0.03 nM + LHRH 3.0 nM): 117 ± 10 ng/mL
- FSH ([2]; peptide 0.1 nM + LHRH 3.0 nM): 472 ± 59 ng/mL
- RLH ([2]; peptide 0.1 nM + LHRH 3.0 nM): 116 ± 7 ng/mL
- FSH ([2]; peptide 0.3 nM + LHRH 3.0 nM): 617 ± 73 ng/mL
- RLH ([2]; peptide 0.3 nM + LHRH 3.0 nM): 107 ± 11 ng/mL
- FSH ([2]; peptide 1.0 nM + LHRH 3.0 nM): 481 ± 17 ng/mL
- RLH ([2]; peptide 1.0 nM + LHRH 3.0 nM): 80 ± 2 ng/mL
- FSH ([2]; peptide 3.0 nM + LHRH 3.0 nM): 233 ± 38 ng/mL
- RLH ([2]; peptide 3.0 nM + LHRH 3.0 nM): 34 ± 2 ng/mL
- FSH ([2]; peptide 10.0 nM + LHRH 3.0 nM): 165 ± 21 ng/mL
- RLH ([2]; peptide 10.0 nM + LHRH 3.0 nM): 11 ± 1 ng/mL
- Serum LH ([3]; injected 10 ug 44 hours before 50 ng agonist): 46 ± 12 ng/µL
- Serum FSH [3, 6]: about 300 ng/ul
- Serum LH [3, 6]: 5 ± 0.7 ng/µL
- FSH ([3]; s.c. 3 μg): 2497 ± 155 ng/mL
- LH ([3]; s.c. 3 μg): 90 ± 5 ng/mL
- FSH ([3]; s.c. 10 μg): 1413 ± 230 ng/mL
- LH ([3]; s.c. 10 μg): 46 ± 12 ng/mL
- FSH ([3]; s.c. 30 μg): 311 ± 34 ng/mL
- LH ([3]; s.c. 30 μg): 5 ± 0.7 ng/mL
- # Ovulated/# Rats ([4]; oral dose 300 μg): 9/11
- AOA % Inhibition ([4]; oral dose 300 μg in 10 mM acetic acid:water (1:1)): 18%
- # Ovulated/# Rats ([4]; oral dose 600 μg): 3/11
- AOA % Inhibition ([4]; oral dose 600 μg in 10 mM acetic acid:water (1:1)): 73%
- # Ovulated/# Rats ([4]; oral dose 1200 μg): 0/11
- AOA % Inhibition ([4]; oral dose 1200 μg in 10 mM acetic acid:water (1:1)): 100%
- In Vitro Histamine Release ED50 [5]: 300 µg/mL
